Consider two molecules from patent US20220389066A1 (Affibody, published 2022).

For one assay, the target named is T1, interleukin-6 (IL-6) (UniProt P05231 29-212).
T1 sequence (looked up): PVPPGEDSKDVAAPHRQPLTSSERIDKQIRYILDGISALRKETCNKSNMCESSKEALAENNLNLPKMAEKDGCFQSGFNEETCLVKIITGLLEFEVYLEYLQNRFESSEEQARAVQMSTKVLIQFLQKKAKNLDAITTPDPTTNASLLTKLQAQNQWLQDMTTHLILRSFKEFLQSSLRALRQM
The assay is described as follows: SPR (Biacore 2000); ZZA4263 captured on immobilized HSA, analyte injected. On the procedure:
(§1) HSA (Albucult®, Novozyme) was diluted to 10 μg/ml in acetate, pH 4.0, and immobilized onto a CM5 sensor chip using a Biacore 2000 instrument. Immobilization was performed by amine chemistry, using amine coupling kit, according to the manufacturer's instructions. The first surface of each chip was activated and deactivated for use as a reference cell (blank surface) during analyte injections. HBS-EP was used as running buffer, supplemented with 1.5 mM DTT when analyzing the binding to HMGB1(red). ZZA4263 was injected at a concentration of 100 nM for 4 minutes over the HSA and the reference sensor chip surfaces at a constant flow rate of 30 μl/min. This was followed by 4 minutes' injection of 0, 8.3, 25, 75, 225 and 675 nM of HMGB1(red), HMGB1(disulfide), HMGB2 (Biorbyt, cat. no. orb180287), HMGB3 (Biorbyt, cat. no. orb180288), SP100 (Biorbyt, cat. no. orb169341), TNF (R&D Systems, cat. no. 210-TA), IL-6 (R&D Systems, cat. no. 206-IL) and IL-1β (R&D Systems, cat. no. 201-LB/CF), respectively. The proteins were allowed to dissociate for 20 minutes before the chip surfaces were regenerated by two 10 second pulses using 10 mM HCl. The reference surface and the buffer sample were subtracted from all curves. The buffer sample was subtracted to adjust for the dissociation of ZZA4263 from HSA. All curves were fitted to a kinetic 1:1 Langmuir model in the BIA Evaluation software to estimate the binding properties (kₐ, kd and KD).
(§2) ZZA4263 was injected and captured on a surface with immobilized HSA followed by concentration series of HMGB1(red), HMGB1(disulfide), HMGB2, HMGB3, SP100, TNF, IL-6 and IL-1β. The highly homologous human proteins HMGB2, HMGB3, SP100 all bind to ZZA4263, although with 17-550 times lower affinity compared to HMGB1(red). No significant binding was detected to any of the other tested proteins involved in the HMGB1 signaling pathway (TNF, IL-6 and IL-1β).
A general note: In SPR one partner is held on a chip, and binding of the other changes the refractive index at the surface.

Assay [1] has as its target tumor necrosis factor (TNF) (UniProt P01375 77-233). The description is as above. On the procedure: as §1, §2
Another assay deals with T2, interleukin-1β (IL-1β) (UniProt P01584 117-269).
T2 sequence (looked up): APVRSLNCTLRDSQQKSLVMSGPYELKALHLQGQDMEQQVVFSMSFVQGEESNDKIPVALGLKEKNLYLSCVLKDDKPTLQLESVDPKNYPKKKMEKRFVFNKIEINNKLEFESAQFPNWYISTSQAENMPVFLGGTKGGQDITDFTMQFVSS
The assay is described as above. As for the experimental part: as §1, §2

The target of assay [2] is T3, HMGB1(red), fully reduced form of full-length HMGB1 (HMGB1C23hC45hC106h) (rat, UniProt P63159 1-215, all cysteines reduced (C23h, C45h, C106h)).
T3 construct: Produced by HMGBiotech; also called HMGB1(reduced); b-HMGB1(red)
T3 sequence: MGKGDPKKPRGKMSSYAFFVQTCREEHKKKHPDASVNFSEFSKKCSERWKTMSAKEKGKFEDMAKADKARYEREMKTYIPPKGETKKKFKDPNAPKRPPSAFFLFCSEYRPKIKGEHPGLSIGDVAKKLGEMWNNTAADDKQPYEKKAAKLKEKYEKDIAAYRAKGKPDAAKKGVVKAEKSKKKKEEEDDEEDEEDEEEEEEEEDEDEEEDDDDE
The assay can be described thus: SPR (Biacore 2000); ZZA4263 captured on immobilized HSA, analyte injected 8.3-675 nM, 1.5 mM DTT; 1:1 Langmuir model. On the procedure:
as §1, §2

The target in assay [3] is T4, HMGB1(disulfide), disulfide linked form of full-length HMGB1 (HMGB1C23-C45C106h) (rat, UniProt P63159 1-215, disulfide C23-C45; C106 reduced).
T4 construct: unlabelled in Biacore and Attana; also called b-HMGB1(disulfide)
T4 sequence: T3 sequence
The assay can be described thus: SPR (Biacore 2000); Z-ABD captured on HSA, analyte injected; heterogeneous ligand parallel reactions model, KD1. As for the experimental part:
Biacore kinetic and specificity analysis: Kinetic constants (kₐ and kd) and affinities (KD) for HMGB1(red), HMGB1(disulfide), boxA(disulfide) and GST-boxA(red) were determined for the A-box binding Z-ABD polypeptides ZA3812 (SEQ ID NO:35) and ZA3914 (SEQ ID NO:36) (see Example 2), as well as for the HMGB1(red) interaction with the B-box binding polypeptide ZA3975, using a Biacore 2000 instrument (GE Healthcare).
The experiment was performed as a capture assay, in which human serum albumin (HSA, Novozymes, cat. no. 230-005) was immobilized on the carboxylated dextran layer of one CM5 chip surface (GE Healthcare, cat. no. BR100012) to immobilization levels of approximately 3000 RU. The immobilization was performed using amine coupling chemistry according to the manufacturer's protocol and using HBS-EP (GE Healthcare, cat. no. BR100188) as running buffer. In a first set of experiments, Z-ABD polypeptides were analyzed under non-reducing conditions. One flow cell surface was activated and deactivated for use as blank during ligand and analyte injections. In the kinetic experiment, HBS-EP was used as running buffer and the flow rate was 30 μl/min. The ligand, i.e. the Z-ABD polypeptide, was diluted in HBS-EP buffer to a concentration of 30 nM and injected during 2 min. […]

UniProt P01375, sequence (P01375 77-233 limits assumed): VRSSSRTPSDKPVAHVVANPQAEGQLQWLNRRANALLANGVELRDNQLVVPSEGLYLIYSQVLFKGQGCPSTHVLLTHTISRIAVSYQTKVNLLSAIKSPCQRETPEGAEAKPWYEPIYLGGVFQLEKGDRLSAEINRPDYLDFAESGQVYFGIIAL

B1: ZZA4263, Z(boxB)-L2-Z(boxA)-ABD (designed binder)
chain: AEAKYAKEAWLAEQEIWQLPNLTEAQFQAFILKLIDDPSQSSELLSEAKKLNDSQAPKGAPGGGGSTSAEAKYAKEDWDAFWEIIWLPNLTDAQQRAFIYKLEDDPSQSSELLSEAKKLNDSQAPKASGSLAEAKEAANAELDSYGVSDFYKRLIDKAKTVEGVEALKDAILAALP
notes: Heterodimer of ZH27 and ZH32 with PP013
What is called Kd is the equilibrium constant for the complex coming apart. Usually koff stands for the first-order rate constant of dissociation. Low readings indicate slow dissociation, high ones fast dissociation. In general, kon refers to a measure of how fast the partners come together. A low value points to slow association. With B1, the binding result (with interleukin-6 (IL-6); in assay [1]; with interleukin-1β (IL-1β)) was “no binding (tested: 675 nM)” throughout. Also, binding in assay [2] was put at a Kd of 0.12 nM. The molecule also returned a koff in assay [2] of 0.00015 s⁻¹. Also, the kon in assay [2] amounted to 1.3e+06 M⁻¹ s⁻¹.

B2: ZA3812 ([ZH 27]-ASGS-PP013) (designed binder)
chain: AEAKYAKEDWDAFWEIIWLPNLTDAQQRAFIYKLEDDPSQSSELLSEAKKLNDSQAPKASGSLAEAKEAANAELDSYGVSDFYKRLIDKAKTVEGVEALKDAILAALP
Molecule B2 registered a dissociation constant Kd in assay [3] of 110 nM.
